Experimental data as given in PMC8298518.
No constants are given. Whether binding was seen depends on the method and setting. Binding seen in cells or lysates may run through a third protein. Some entries that bind do so weakly or less than the wild type. For some assays here: Where a sequence is shown, tags or fusion partners need not be part of it.

By UniProt entry, the sequences of proteins in these tests, tags left out.
UniProt Q07820: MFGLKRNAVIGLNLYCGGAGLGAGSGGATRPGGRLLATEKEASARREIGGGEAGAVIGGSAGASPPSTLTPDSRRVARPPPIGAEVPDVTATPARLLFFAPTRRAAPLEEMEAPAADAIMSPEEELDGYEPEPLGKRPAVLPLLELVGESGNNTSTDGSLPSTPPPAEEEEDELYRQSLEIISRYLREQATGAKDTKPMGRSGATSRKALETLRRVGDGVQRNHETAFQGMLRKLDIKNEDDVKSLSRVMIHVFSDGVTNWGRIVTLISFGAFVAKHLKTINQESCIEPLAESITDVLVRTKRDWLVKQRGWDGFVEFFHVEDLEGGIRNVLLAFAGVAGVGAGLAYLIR
UniProt P10415: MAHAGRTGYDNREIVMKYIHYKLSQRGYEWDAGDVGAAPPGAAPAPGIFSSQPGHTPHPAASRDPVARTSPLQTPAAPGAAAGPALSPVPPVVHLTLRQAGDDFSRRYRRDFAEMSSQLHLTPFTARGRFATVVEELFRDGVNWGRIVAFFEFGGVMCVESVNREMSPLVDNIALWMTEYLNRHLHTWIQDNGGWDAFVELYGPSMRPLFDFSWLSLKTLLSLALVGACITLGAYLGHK
UniProt Q07817: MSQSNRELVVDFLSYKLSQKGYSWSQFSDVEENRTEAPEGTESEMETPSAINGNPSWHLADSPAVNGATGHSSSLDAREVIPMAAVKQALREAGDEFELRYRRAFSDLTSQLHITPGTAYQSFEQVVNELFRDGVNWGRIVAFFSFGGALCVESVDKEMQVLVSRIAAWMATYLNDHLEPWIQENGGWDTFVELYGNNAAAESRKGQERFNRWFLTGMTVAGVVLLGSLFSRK

Experiments:
[1] = target: Flag-tagged MCL-1 WT (human) (UniProt Q07820); experiment: co-IP; immunoprecipitation experiments using mutants of MCL-1 and GBP1 (Supplementary Fig. 2a, b)
[2] = target: endogenous MCL-1 (human (endogenous in K562 and HL-60)) (UniProt Q07820); experiment: co-IP; HL-60 cells (Supplementary Fig. 1b)
[3] = target: endogenous MCL-1 (human (endogenous in K562 and HL-60)) (UniProt Q07820); experiment: co-IP; K562 cells transfected with plasmids encoding GBP1 or GBP2 (3 µg; HA-GBP2 0, 3 or 6 µg), immunoprecipitation
[4] = target: T1, FLAG-BCL2A1 (UniProt Q16548); experiment: co-IP; K562 cells cotransfected with 3 µg of plasmids encoding HA-GBP2 and FLAG-BCL-2 family members
T1 sequence: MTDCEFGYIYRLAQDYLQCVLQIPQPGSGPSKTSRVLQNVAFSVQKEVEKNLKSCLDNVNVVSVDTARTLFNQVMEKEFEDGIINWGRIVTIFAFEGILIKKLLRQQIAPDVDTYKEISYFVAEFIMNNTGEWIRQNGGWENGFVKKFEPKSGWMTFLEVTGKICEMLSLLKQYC

[5] = target: FLAG-BCL-2 (UniProt P10415); experiment: as above
[6] = target: FLAG-BCL-xL (UniProt Q07817); experiment: as above
[7] = target: Flag-tagged MCL-1 WT (human) (UniProt Q07820); experiment: as above
[8] = target: endogenous MCL-1 (human (endogenous in K562 and HL-60)) (UniProt Q07820); experiment: co-IP; endogenous proteins from K562 lysates, immunoprecipitation and western blot, IgG as control; also after HA-GBP2 transfection (0, 3, 6 µg), GBP2 siRNA (200 nM), GBP2 knock-out, stable GBP1 or GBP2 overexpression, or paclitaxel (1 µM, 24 h)
[9] = target: endogenous MCL-1 (human (endogenous in K562 and HL-60)) (UniProt Q07820); experiment: co-IP; endogenous proteins from HL-60 lysates, immunoprecipitation and western blot, IgG as control
[10] = target: Flag-tagged MCL-1 WT (human) (UniProt Q07820); experiment: co-IP; 293T cells (2 x 10^6) cotransfected for 24 h; lysates immunoprecipitated with anti-FLAG

B1: HA-GBP1 (protein, UniProt P32455 1-592)
chain: MASEIHMTGPMCLIENTNGRLMANPEALKILSAITQPMVVVAIVGLYRTGKSYLMNKLAGKKKGFSLGSTVQSHTKGIWMWCVPHPKKPGHILVLLDTEGLGDVEKGDNQNDSWIFALAVLLSSTFVYNSIGTINQQAMDQLYYVTELTHRIRSKSSPDENENEVEDSADFVSFFPDFVWTLRDFSLDLEADGQPLTPDEYLTYSLKLKKGTSQKDETFNLPRLCIRKFFPKKKCFVFDRPVHRRKLAQLEKLQDEELDPEFVQQVADFCSYIFSNSKTKTLSGGIQVNGPRLESLVLTYVNAISSGDLPCMENAVLALAQIENSAAVQKAIAHYEQQMGQKVQLPTETLQELLDLHRDSEREAIEVFIRSSFKDVDHLFQKELAAQLEKKRDDFCKQNQEASSDRCSALLQVIFSPLEEEVKAGIYSKPGGYRLFVQKLQDLKKKYYEEPRKGIQAEEILQTYLKSKESMTDAILQTDQTLTEKEKEIEVERVKAESAQASAKMLQEMQRKNEQMMEQKERSYQEHLKQLTEKMENDRVQLLKEQERTLALKLQEQEQLLKEGFQKESRIMKNEIQDLQTKMRRRKACTIS
binding [1]: binds | binding [2]: binds | binding [3]: binds

B2: HA-GBP2 (protein, UniProt P32456 1-591)
chain: MAPEINLPGPMSLIDNTKGQLVVNPEALKILSAITQPVVVVAIVGLYRTGKSYLMNKLAGKKNGFSLGSTVKSHTKGIWMWCVPHPKKPEHTLVLLDTEGLGDIEKGDNENDSWIFALAILLSSTFVYNSMGTINQQAMDQLHYVTELTDRIKANSSPGNNSVDDSADFVSFFPAFVWTLRDFTLELEVDGEPITADDYLELSLKLRKGTDKKSKSFNDPRLCIRKFFPKRKCFVFDWPAPKKYLAHLEQLKEEELNPDFIEQVAEFCSYILSHSNVKTLSGGIPVNGPRLESLVLTYVNAISSGDLPCMENAVLALAQIENSAAVEKAIAHYEQQMGQKVQLPTETLQELLDLHRDSEREAIEVFMKNSFKDVDQMFQRKLGAQLEARRDDFCKQNSKASSDCCMALLQDIFGPLEEDVKQGTFSKPGGYRLFTQKLQELKNKYYQVPRKGIQAKEVLKKYLESKEDVADALLQTDQSLSEKEKAIEVERIKAESAEAAKKMLEEIQKKNEEMMEQKEKSYQEHVKQLTEKMERDRAQLMAEQEKTLALKLQEQERLLKEGFENESKRLQKDIWDIQMRSKSLEPICNIL
binding [4]: no binding | binding [5]: no binding | binding [6]: no binding | binding [7]: binds | binding [3]: binds

B3: endogenous GBP2 (protein, UniProt P32456 1-591)
chain: MAPEINLPGPMSLIDNTKGQLVVNPEALKILSAITQPVVVVAIVGLYRTGKSYLMNKLAGKKNGFSLGSTVKSHTKGIWMWCVPHPKKPEHTLVLLDTEGLGDIEKGDNENDSWIFALAILLSSTFVYNSMGTINQQAMDQLHYVTELTDRIKANSSPGNNSVDDSADFVSFFPAFVWTLRDFTLELEVDGEPITADDYLELSLKLRKGTDKKSKSFNDPRLCIRKFFPKRKCFVFDWPAPKKYLAHLEQLKEEELNPDFIEQVAEFCSYILSHSNVKTLSGGIPVNGPRLESLVLTYVNAISSGDLPCMENAVLALAQIENSAAVEKAIAHYEQQMGQKVQLPTETLQELLDLHRDSEREAIEVFMKNSFKDVDQMFQRKLGAQLEARRDDFCKQNSKASSDCCMALLQDIFGPLEEDVKQGTFSKPGGYRLFTQKLQELKNKYYQVPRKGIQAKEVLKKYLESKEDVADALLQTDQSLSEKEKAIEVERIKAESAEAAKKMLEEIQKKNEEMMEQKEKSYQEHVKQLTEKMERDRAQLMAEQEKTLALKLQEQERLLKEGFENESKRLQKDIWDIQMRSKSLEPICNIL
binding [8]: binds | binding [9]: binds

B4: GBP2 ΔC (domain or fragment, UniProt P32456 1-309)
chain: MAPEINLPGPMSLIDNTKGQLVVNPEALKILSAITQPVVVVAIVGLYRTGKSYLMNKLAGKKNGFSLGSTVKSHTKGIWMWCVPHPKKPEHTLVLLDTEGLGDIEKGDNENDSWIFALAILLSSTFVYNSMGTINQQAMDQLHYVTELTDRIKANSSPGNNSVDDSADFVSFFPAFVWTLRDFTLELEVDGEPITADDYLELSLKLRKGTDKKSKSFNDPRLCIRKFFPKRKCFVFDWPAPKKYLAHLEQLKEEELNPDFIEQVAEFCSYILSHSNVKTLSGGIPVNGPRLESLVLTYVNAISSGDLPC
binding [10]: binds
